Measured values published in the supplement of paper PMC4604168 (melanoma cell lines).
The list shows a part of the results. Most values come without repeats; read them as rough.

Columns and labels:
Test in all cases: cell count relative to DMSO control; melanoma cells; higher = more viable cells
Conditions in all cases: library dose: standard library concentration; 72 h
[1] = system: G361
[2] = system: IPC-298
[3] = system: IST-MEL1
[4] = system: LB2518-MEL
[5] = system: LOXIMVI
[6] = system: MEL-HO
[7] = system: MZ2-MEL
[8] = system: MeWo
[9] = system: RPMI7951
[10] = system: RVH-421
[11] = system: SkMel28
[12] = system: SkMel2
[13] = system: SkMel30
[14] = system: SkMel5
[15] = system: UACC257
[16] = system: UACC62
[17] = system: WM115
[18] = system: WM1716
[19] = system: WM1745
[20] = system: WM3526
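Also: cells treated in 1,536-well plates, then fixed and DAPI-stained, with nuclei counted from automated high-throughput microscope images.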

Row | SMILES | cell count [1] [%] | cell count [2] [%] | cell count [3] [%] | cell count [4] [%] | cell count [5] [%] | cell count [6] [%] | cell count [7] [%] | cell count [8] [%] | cell count [9] [%] | cell count [10] [%] | cell count [11] [%] | cell count [12] [%] | cell count [13] [%] | cell count [14] [%] | cell count [15] [%] | cell count [16] [%] | cell count [17] [%] | cell count [18] [%] | cell count [19] [%] | cell count [20] [%]
1 | O=C(CCCCCCC(=O)Nc1ccccc1)NO [vorinostat] + C=CCn1c(=O)c2cnc(Nc3ccc(N4CCN(C)CC4)cc3)nc2n1-c1cccc(C(C)(C)O)n1 [MK1775] (first compound 0.4 µM, partner dose 0.1 µM) | 58.3 | 67.9 | 78.6 | 63.7 | 54 | 74 | 126 | 82.1 | 35.4 | 113 | 27.7 | 62.7 | 60.5 | 59 | 77.4 | 68.5 | 44.2 | 78.6 | 70.9 | 65.8
2 | O=C(CCCCCCC(=O)Nc1ccccc1)NO [vorinostat] + COc1cc(Nc2ncc(F)c(Nc3ccc4c(n3)NC(=O)C(C)(C)O4)n2)cc(OC)c1OC [Tamatinib] (first compound 0.4 µM, partner dose 2 µM) | 54.6 | 74.1 | 66.7 | 79.1 | 24 | 74.3 | 73.2 | 68.9 | 15 | 69.1 | 68.6 | 54 | 90.8 | 43.9 | 62.7 | 66 | 73.1 | 73.4 | 36.6 | 68.5
3 | C#Cc1cccc(Nc2ncnc3cc(OCCOC)c(OCCOC)cc23)c1 [erlotinib] + O=C(O)c1ccc(-c2c[nH]c3ncc(-c4ccccc4)cc23)cc1C1CCCC1 [GSK650394] (first compound 4 µM, partner dose 0.8 µM) | 43.3 | 72.4 | 68.4 | 56.9 | 67.6 | 66.2 | 82.5 | 63.1 | 60.7 | 79.9 | 44.1 | 79.5 | 77.4 | 54.7 | 80.1 | 85.5 | 66.2 | 79.2 | 67.7 | 64.3
4 | Nc1cccc2c1CN(C1CCC(=O)NC1=O)C2=O (stereo not given) [lenalidomide] + COC(=O)c1sccc1S(=O)(=O)Nc1ccc(Nc2ccccc2)cc1OC [GSK0660] (first compound 5 µM, partner dose 5 µM) | 90.5 | 102 | 98.9 | 116 | 117 | 98.8 | 84.4 | 89.2 | 142 | 85 | 77.4 | 91.2 | 82.4 | 72.9 | 83.4 | 101 | 101 | 98.6 | 113 | 97.4
5 | Nc1cccc2c1CN(C1CCC(=O)NC1=O)C2=O (stereo not given) [lenalidomide] + O=C(O)c1ccc(-c2c[nH]c3ncc(-c4ccccc4)cc23)cc1C1CCCC1 [GSK650394] (first compound 5 µM, partner dose 0.8 µM) | 54.6 | 79.5 | 66.7 | 81.1 | 66.7 | 71.9 | 84 | 92.2 | 73.2 | 67.3 | 53.4 | 70.4 | 85 | 91.6 | 77.5 | 86 | 101 | 93.9 | 88.6 | 83.7
6 | O=C(CCCCCCC(=O)Nc1ccccc1)NO [vorinostat] + O=S(=O)(c1ccccc1)N(CC(F)(F)F)c1ccc(C(O)(C(F)(F)F)C(F)(F)F)cc1 [T0901317] (first compound 0.4 µM, partner dose 7 µM) | 68.6 | 83.7 | 88.1 | 83.4 | 80.4 | 87.5 | 92.6 | 95.2 | 75.7 | 87.2 | 72.1 | 64.3 | 85.7 | 71.6 | 69.7 | 85.4 | 85.2 | 93.8 | 72.2 | 66
7 | Nc1cccc2c1CN(C1CCC(=O)NC1=O)C2=O (stereo not given) [lenalidomide] + CN(C)S(=O)(=O)c1ccc2c(c1)/C(=C/c1cc3c([nH]1)CCCC3)C(=O)N2 [SU6656] (first compound 5 µM, partner dose 2 µM) | 68.5 | 89.8 | 99.5 | 75.8 | 92.6 | 101 | 95.4 | 78.3 | 66.8 | 76.1 | 63.1 | 84.5 | 88.1 | 94.2 | 79.4 | 83.9 | 64.4 | 64.6 | 75.8 | 79.6
8 | Cn1c(Nc2ccc(C(F)(F)F)cc2)nc2cc(Oc3ccnc(-c4ncc(C(F)(F)F)[nH]4)c3)ccc21 + C[C@]1(c2nc3c(C(N)=O)cccc3[nH]2)CCCN1 [Veliparib] (first compound 0.4 µM, partner dose 7 µM) | 23.9 | 40.5 | 81.5 | 38.8 | 81.4 | 51.2 | 44.1 | 64.4 | 58.6 | 53.2 | 25 | 48.4 | 65.5 | 32.7 | 72 | 46.4 | 37.7 | 65.5 | 39.6 | 44.3
9 | OCc1c[nH]c2ccccc12 [Indole-3-carbinol] + COc1cc(Nc2ncc(F)c(Nc3ccc4c(n3)NC(=O)C(C)(C)O4)n2)cc(OC)c1OC [Tamatinib] (first compound 4 µM, partner dose 2 µM) | 84.4 | 86.1 | 78.3 | 81.4 | 33.3 | 78.7 | 63.6 | 68.3 | 49.5 | 95.8 | 110 | 72.2 | 89.6 | 46.4 | 78.9 | 85.4 | 66.5 | 85.6 | 37.9 | 78.5
10 | Cn1c(Nc2ccc(C(F)(F)F)cc2)nc2cc(Oc3ccnc(-c4ncc(C(F)(F)F)[nH]4)c3)ccc21 + COc1ccc(-c2ccc3c(N4CCOCC4)nc(N4C[C@@H](C)O[C@@H](C)C4)nc3n2)cc1CO [KU0063794] (first compound 0.4 µM, partner dose 0.1 µM) | 14.5 | 43.8 | 77.6 | 32.1 | 73.5 | 46.6 | 45.7 | 57.3 | 46 | 54.3 | 32.2 | 48.8 | 48.9 | 44.8 | 74.5 | 66.5 | 41.4 | 65.3 | 60.7 | 38.8
11 | O=C(CCCCCCC(=O)Nc1ccccc1)NO [vorinostat] + CCN(CC)CCCCNc1ncc2cc(-c3cc(OC)cc(OC)c3)c(NC(=O)NC(C)(C)C)nc2n1 [PD173074] (first compound 0.4 µM, partner dose 0.5 µM) | 73.5 | 72.4 | 96.2 | 74.3 | 71.5 | 84.2 | 87 | 64.5 | 76.4 | 106 | 65.2 | 86.3 | 82.8 | 82.1 | 70.6 | 87.7 | 72.4 | 92.5 | 79.5 | 69.3
12 | OCc1c[nH]c2ccccc12 [Indole-3-carbinol] + CO[C@@H]1[C@H](N(C)C(=O)c2ccccc2)C[C@H]2O[C@]1(C)n1c3ccccc3c3c4c(c5c6ccccc6n2c5c31)C(=O)NC4 [Midostaurin] (first compound 4 µM, partner dose 0.4 µM) | 46.4 | 66 | 70.2 | 70 | 56.6 | 86.8 | 54.8 | 87.2 | 56.2 | 45.4 | 61.6 | 52.7 | 60 | 61.7 | 62.8 | 72.5 | 37.6 | 45 | 37.4 | 93.3
13 | Nc1cccc2c1CN(C1CCC(=O)NC1=O)C2=O (stereo not given) [lenalidomide] + COc1cc(N2CCC(N3CCN(C)CC3)CC2)ccc1Nc1ncc(Cl)c(Nc2ccccc2S(=O)(=O)C(C)C)n1 [NVP-TAE684] (first compound 5 µM, partner dose 0.4 µM) | 75 | 90.1 | 98.5 | 92.7 | 106 | 78.5 | 84.8 | 75.8 | 78 | 88.9 | 82.1 | 77.1 | 111 | 65.2 | 79 | 97.3 | 80.4 | 82.7 | 29.6 | 79.6
14 | O=C(CCCCCCC(=O)Nc1ccccc1)NO [vorinostat] + CCCCCCCCCCCC1=C(O)C(=O)C=C(O)C1=O [Embelin] (first compound 0.4 µM, partner dose 6 µM) | 73.1 | 67.8 | 69.6 | 74.4 | 69.6 | 73.5 | 78.4 | 87.4 | 58 | 76.4 | 47.1 | 81.1 | 85.6 | 73 | 61.7 | 90 | 78.8 | 108 | 73.2 | 75
15 | Cn1c(Nc2ccc(C(F)(F)F)cc2)nc2cc(Oc3ccnc(-c4ncc(C(F)(F)F)[nH]4)c3)ccc21 + c1cc(-c2cnn3cc(-c4ccc(OCCN5CCCCC5)cc4)cnc23)ccn1 [Dorsomorphin] (first compound 0.4 µM, partner dose 2 µM) | 41 | 48.5 | 74.5 | 33.7 | 96.1 | 59.8 | 48.4 | 57.1 | 40.9 | 94.9 | 33 | 70 | 67.3 | 40.4 | 74.6 | 50.3 | 47.7 | 62.4 | 47.9 | 47.4
16 | Cn1c(Nc2ccc(C(F)(F)F)cc2)nc2cc(Oc3ccnc(-c4ncc(C(F)(F)F)[nH]4)c3)ccc21 + NC(=O)Nc1cc(-c2cccc(F)c2)sc1C(=O)N[C@H]1CCCNC1 [AZD7762] (first compound 0.4 µM, partner dose 0.1 µM) | 21.6 | 49 | 69.6 | 27.5 | 55.9 | 57.1 | 71.6 | 65.5 | 33.2 | 76.8 | 31.3 | 32.5 | 55.8 | 34.5 | 89.1 | 41 | 23.5 | 60.4 | 47 | 40.2
17 | COCC[n+]1c2c(n(Cc3cnccn3)c1C)C(=O)c1ccccc1C2=O + Oc1nc(-c2ccc(C(F)(F)F)cc2)nc2c1CSCC2 [XAV939] (first compound 0.002 µM, partner dose 10 µM) | 53.9 | 46.9 | 44.8 | 27.7 | 84 | 78.4 | 12.6 | 81.9 | 34.6 | 106 | 28.3 | 39.4 | 70.2 | 37.3 | 20.1 | 77.9 | 64.5 | 72.7 | 70 | 37
18 | Cn1c(Nc2ccc(C(F)(F)F)cc2)nc2cc(Oc3ccnc(-c4ncc(C(F)(F)F)[nH]4)c3)ccc21 + CCCCCCCCCCCC1=C(O)C(=O)C=C(O)C1=O [Embelin] (first compound 0.4 µM, partner dose 6 µM) | 25.7 | 45.4 | 66.8 | 50.8 | 94.1 | 57.7 | 35.2 | 51.9 | 63.2 | 42.4 | 30.5 | 53.5 | 67.3 | 33.8 | 74.5 | 49.5 | 39.8 | 60.4 | 53.7 | 43
